# Experimental data reported in the RNAGym collection of RNA variant scans (doi:10.1073/pnas.2313332121).
# This sample is rich in variants without activity.
# B1: TPR 5TU (parent)
# chain: GGAUCUUCUCGAUCUAACAAAAAAGACAAAUCUGCCACAAAGCUUGAGAGCAUCUUCGGAUGCAGAGGCGGCAGCCUUCGGUGGCGCGAUAGCGCCAACGUUCUCAACUAUGACACGCAAAACGCGUGCUCCGUUGAAUGGAGUUUAUCAUG
# Variants of: B1
# Assay: polymerase ribozyme fitness, log enrichment relative to wild type (log ratio); higher = more active; in vitro selection for triplet polymerase activity
# Method in brief: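 Libraries of mutants in each subunit of a heterodimeric triplet polymerase ribozyme were generated by PCR and transcribed. In triplicate, each went through one in vitro selection round: annealing with biotinylated primer, partner subunit and triplets; frozen incubation at −7 °C; gel excision of extended constructs; streptavidin-bead capture; RT-PCR. Fitness, taken from Illumina sequencing of input and output libraries, is the logarithm of a genotype's enrichment over wild-type enrichment, averaged across replicates with inverse-variance weights. The logarithm is base 2, and genotypes needed ≥10 input reads and ≥1 read per output to be kept.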
row,Variant,polymerase ribozyme fitness (log ratio)
1,U6A C51A G62A C75A G81C G88C C125G,≤ -4.2
2,U6C A52G G70A C96A U102G C129G G143A U146A,≤ -4.2
3,C8G U53C C76A G92U,≤ -4.2
4,U6G A41G G50A C103G A115C U148A,≤ -4.2
5,U7A A28C G84U C105A G124U G143C,≤ -4.2
6,U6C A19G A23U A24C G86A G92A C105G A142U,≤ -4.2
7,C8G A16G U53G C57A A91C C95G A113U U145C,≤ -4.2
8,U7G A22G C76U U90G C103G U148A,≤ -4.2
9,C8A G11C G58A C87G C95U,≤ -4.2
10,C8A A24U A41C U45G U55A C75G G83U,≤ -4.2
11,U6A U78A A91U G94A A115G,≤ -4.2
12,U7G C18A A23G A52G C93A G152U,≤ -4.2
13,U6C C76A C105U C132U,≤ -4.2
14,U7C C8A U55A U78A C85U C93U,≤ -4.2
15,U6G U53A G71U C75U C76A A97G A106U G152A,≤ -4.2
16,C8G G94U C95U U151G,≤ -4.2
17,U6C A26G A110G C118A,≤ -4.2
18,C8U A20G C51G G94U U127G,≤ -4.2
19,C8G A22G G50A U56A A91U U139G U148A,≤ -4.2
20,U6C U9G G11A U13G A26U A29U A39U A106U,≤ -4.2
21,U6G U13C G50C C54U A64U U78G C96G A98U A137C,≤ -4.2

row,Variant,polymerase ribozyme fitness (log ratio)
1,U6C A30U G58C C95U U135C U144A,≤ -4.2
2,U7C G50A C93G C125U U148A A150G,≤ -4.2
3,U6C U15G U31A G94A C95A U148C,≤ -4.2
4,U7C A24G A29G G50U C75G C95G,≤ -4.2
5,U6C G42C C51U C75A C116U,≤ -4.2
6,C8A A22U G58C G70A G86U U90C A98U A107U C125U,≤ -4.2
7,U7G A16U A21G A37U A49G G94A A119C C132G A138U,≤ -4.2
8,U7C C10U A22U A40U U55A G84U C118A A119C C149G,≤ -4.2
9,C8G C10U U13A A30U C36G C85U,≤ -4.2
10,U7A U90G,≤ -4.2
11,U6A A52C G80C C93U G100U,≤ -4.2
12,U7G C43U C51A U56A U90A C95U C105A A122C A138U,≤ -4.2
13,C5U U9A A16C U90C A97C A107C,≤ -4.2
14,C8G U9A A21U C93U C131A,≤ -4.2
15,C8G C63G G68U G86A U127A C131A,≤ -4.2
16,U6A A26C G65C U82G G140U,≤ -4.2
17,C5U U33A U55A C75A C96U G136U A147G A150C,≤ -4.2
18,U7G A23U G68C G92U,≤ -4.2
19,C8A C27G A89G,≤ -4.2
20,U6A A12G C35A G62U G84A G86A C99G U104G U135A,≤ -4.2
21,U7C A24G A29G G70U G94U U135C G141U,≤ -4.2

row,Variant,polymerase ribozyme fitness (log ratio)
1,U7G C75A C85G C95A C149A,≤ -4.2
2,C8G C18G G46A U56G C85A U135G U144C,≤ -4.2
3,U6C A47C C76G C79U C93A C108G,≤ -4.2
4,U7G U53A C54G U55G A121C U135G C149U,≤ -4.2
5,U7G U15G A24U C36U C54U U56A A64U C99U,≤ -4.2
6,C8A G68A C76G C85U U90A C93G A107U,≤ -4.2
7,C8G C76A G92U,≤ -4.2
8,C8A A47G A49C G59C A60U G68U C87U,≤ -4.2
9,U7G A17U C35U C63U G94U C99G C123U G141C,≤ -4.2
10,U6A G42U G62A C69U C93A U101G,≤ -4.2
11,C8U A20C A52C C85U,≤ -4.2
12,U6C A39U G67U U90C G94A G141U,≤ -4.2
13,U6A C85A C93A G141U,≤ -4.2
14,U6G C18G A39U A40U C93A G94U,≤ -4.2
15,U7G G71C C95U C105A A142U,≤ -4.2
16,C8A U44A C57A G83A U134A,≤ -4.2
17,C8G C27A U33A C51A G58A C79U C96A U111G G143U A150C,≤ -4.2
18,U6G G42C G83U U130G U151G,≤ -4.2
19,U7G C8A C32A A91C G94U C108G C123G G136U,≤ -4.2
20,U6G A19U C35A G83U G94C A106G,≤ -4.2
21,U6C A12G C43A A60G C95U C114G,≤ -4.2

row,Variant,polymerase ribozyme fitness (log ratio)
1,C8A A19C C32U G59C A66G G71U G86C G92U,≤ -4.2
2,U7G A16G G83C C95A A98U U101A A115U U144A,≤ -4.2
3,U6G A29U C76U C87U U90A C95G A106U A107C G133A,≤ -4.2
4,C8U A16G C36U A41U G59U G83U A121C,≤ -4.2
5,U7G U15A G67C G83A C131G,≤ -4.2
6,U6C U53G C79G A91C U109A,≤ -4.2
7,U7A A40C C54G G84A A115G G133U,≤ -4.2
8,U6C C14U A26C A28U A49U,≤ -4.2
9,C8G A47G U56A G62A U78A C87A C99U U134C U146G U148G,≤ -4.2
10,U6G A19C U77G C87G C95A U130A,≤ -4.2
11,U7A A37C A49G G68C C85U,≤ -4.2
12,U6G G25U U109G,≤ -4.2
13,C8U A20G A30U C35G A39C C96A G126A,≤ -4.2
14,U7A A47C U56A C87A C93G A121U C132G G143A U144C,≤ -4.2
15,C8G U9G A22C C76G G88U A113C A119U,≤ -4.2
16,U7A C87G A120U,≤ -4.2
17,C8A G42A C75G C87A G141A,≤ -4.2
18,U7G A24U C75U C87U G92A C96G C103G C105A G140C G141U U146A,≤ -4.2
19,C8A U33C U44G U61A G81A G152C,≤ -4.2
20,U6G U61A G67A C87U A107U,≤ -4.2
21,C8G A17U A20U A47G G68A G83C C87U C132G,≤ -4.2
